Reference: the supplement of paper PMC12217912
The other results are listed elsewhere or left out. Sequences were assembled here from the parent chain. Values near 0.05 are background.

B1: TEV protease; numbered along this chain (parent)
chain: MGESLFKGPRDYNPISSSICHLTNESDGHTTSLYGIGFGPFIITNKHLFRRNNGTLVVQSLHGVFKVKDTTTLQQHLVDGRDMIIIRMPKDFPPFPQKLKFREPQREERICLVTTNFQTKSMSSMVSDTSCTFPSGDGIFWKHWIQTKDGQCGSPLVSTRDGFIVGIHSASNFTNTNNYFTSVPKNFMELLTNQEAQQWVSGWRLNADSVLWGGHKVFMVKPEEPFQPVKEATQL

Variants of: B1
Experiment: raw area under fraction-flipped curve 0-4 h after induction (AUC4h, not background-subtracted), DNA-recorder readout of cleavage of the substrate (dimensionless); higher = more cleavage of the substrate by the protease variant
Conditions: temperature: 34 °C; time window: 0-4 h after rhamnose induction
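Further: Bxb1 expression induced with 0.2% (w/v) L-rhamnose at OD600 near 0.5, cultures sampled hourly, flipped fraction per protease–substrate barcode pair counted by paired-end Illumina sequencing.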

Variant | area with substrate ENAYFQS | area with substrate ENCYFQS | area with substrate ENDYFQS | area with substrate ENEYFQS | area with substrate ENFYFQS | area with substrate ENIYFQS | area with substrate ENNYFQS | area with substrate ENPYFQS | area with substrate ENQYFQS | area with substrate ENRYFQS | area with substrate ENSYFQS | area with substrate ENTYFQS | area with substrate ENVYFQS | area with substrate ENWYFQS | area with substrate ENYYFQS | area with substrate ENGYFQS | area with substrate ENHYFQS | area with substrate ENKYFQS | area with substrate ENMYFQS
E223T | 0.0626 | 0.0646 | 0.0609 | 0.0716 | 0.0594 | 0.0705 | 0.0618 | 0.0718 | 0.0552 | 0.0495 | 0.0533 | 0.0782 | 0.0728 | 0.0622 | 0.0506 |  |  |  | 
V217Q | 0.0682 | 0.0512 | 0.062 | 0.0705 |  | 0.0619 |  |  | 0.0618 | 0.0808 | 0.0488 |  | 0.0632 |  | 0.0564 | 0.0531 | 0.0654 | 0.0581 | 
V157A |  | 0.0649 | 0.0748 | 0.0775 | 0.0481 | 0.09 | 0.0635 |  |  |  | 0.0749 |  | 0.0609 | 0.0493 | 0.0526 | 0.0598 |  | 0.0678 | 
N206H | 0.06 | 0.0606 | 0.0606 | 0.0701 | 0.064 | 0.103 | 0.0626 | 0.0753 | 0.0693 | 0.0523 | 0.0583 | 0.0526 | 0.0715 |  | 0.0565 | 0.0606 | 0.0584 |  | 
N206G | 0.0566 |  | 0.0684 | 0.0501 | 0.0513 |  | 0.0591 |  | 0.0543 | 0.0569 |  | 0.0566 |  | 0.0605 | 0.0487 |  |  | 0.0494 | 0.0733
H29L |  | 0.0693 | 0.0599 | 0.0914 |  | 0.145 |  | 0.051 | 0.0432 | 0.0635 | 0.0557 | 0.0606 | 0.0709 | 0.0021 | 0.0603 |  | 0.0598 |  | 0.0814
H215W | 0.0588 | 0.0469 | 0.0795 | 0.0441 | 0.0429 | 0.0568 | 0.0549 | 0.0655 | 0.0473 | 0.0566 | 0.0619 | 0.0533 | 0.06 |  | 0.0381 | 0.062 | 0.0615 |  | 
F38P |  | 0.04 | 0.0444 | 0.0444 |  |  | 0.048 | 0.0355 | 0.0443 | 0.0372 |  | 0.042 | 0.0257 |  | 0.0364 | 0.0504 | 0.0189 | 0.0618 | 0.0413
R10G |  | 0.0634 | 0.0597 | 0.0659 | 0.0433 | 0.0622 | 0.0861 | 0.0557 | 0.0575 | 0.0629 | 0.0651 | 0.0542 | 0.0751 | 0.0832 | 0.0492 | 0.0618 |  |  | 0.0589
H47F |  | 0.0589 | 0.0573 | 0.0484 |  |  | 0.0661 | 0.0651 | 0.0614 | 0.0667 | 0.0622 | 0.0621 | 0.0552 | 0.041 | 0.0508 | 0.0524 | 0.0375 | 0.0626 | 
Q234I | 0.0667 | 0.0649 | 0.0553 | 0.0584 |  |  | 0.0618 | 0.062 | 0.0561 |  | 0.0284 | 0.064 |  | 0.0467 | 0.0547 | 0.0605 | 0.0503 | 0.0581 | 
Q234K | 0.0694 | 0.0663 | 0.0462 | 0.0467 | 0.0542 |  | 0.0594 |  | 0.064 | 0.0612 | 0.0488 | 0.0522 | 0.0751 | 0.0523 | 0.0587 | 0.0664 | 0.0433 | 0.0524 | 
F6H |  | 0.0744 |  |  |  | 0.101 |  | 0.0765 | 0.0651 |  |  | 0.071 |  |  |  |  | 0.0761 |  | 0.0908
I84W |  | 0.0592 | 0.0549 | 0.0641 | 0.0571 |  | 0.0538 | 0.0184 | 0.0624 | 0.0572 | 0.048 | 0.0417 | 0.0494 | 0.0579 |  | 0.0561 | 0.0515 | 0.0619 | 0.0545
P225F | 0.0618 | 0.0372 | 0.0669 | 0.0587 | 0.0543 | 0.0669 | 0.0602 |  | 0.0723 |  | 0.069 |  | 0.0667 |  |  | 0.0471 |  |  | 0.0694
P225I | 0.0435 |  | 0.0562 | 0.056 | 0.0286 | 0.0954 |  |  | 0.0291 |  | 0.051 | 0.0455 |  |  |  | 0.0576 | 0.0671 | 0.0533 | 
L33P |  | 0.0486 | 0.0538 | 0.0503 |  | 0.0399 | 0.0524 | 0.056 | 0.0485 | 0.0416 | 0.047 | 0.047 | 0.0551 | 0.0424 | 0.0548 | 0.0432 |  | 0.0288 | 0.0485
T44K |  | 0.0437 | 0.0283 | 0.0383 | 0.0393 |  | 0.053 | 0.0509 | 0.0535 | 0.0225 | 0.0512 | 0.0438 |  |  |  | 0.0324 |  | 0.0407 | 0.0492
E231T | 0.048 | 0.0725 | 0.071 | 0.0536 | 0.0504 | 0.094 | 0.059 |  |  | 0.0589 |  |  | 0.0559 |  | 0.0409 | 0.0583 |  |  | 0.0792
S201W | 0.0716 | 0.0663 | 0.0649 | 0.0593 | 0.0657 | 0.0827 | 0.0534 | 0.0463 | 0.0537 | 0.0526 | 0.0576 | 0.0743 | 0.059 | 0.0389 |  | 0.0615 | 0.0468 | 0.0705 | 
S201K | 0.0695 | 0.0797 | 0.0643 |  |  |  | 0.0616 | 0.0762 |  |  | 0.057 |  | 0.0823 |  |  | 0.0412 |  | 0.0616 | 0.0845
F133N |  | 0.0635 | 0.0734 | 0.0702 | 0.0619 | 0.122 |  |  | 0.0566 | 0.0721 | 0.0693 | 0.0664 |  |  | 0.0635 | 0.0599 | 0.0647 |  | 
G213F | 0.0518 | 0.0476 | 0.0542 | 0.0857 |  |  |  | 0.0515 | 0.057 | 0.0669 | 0.057 | 0.0458 |  |  | 0.0421 | 0.0534 | 0.034 | 0.0578 | 
F49V |  | 0.0702 | 0.0585 | 0.0564 |  | 0.0504 | 0.0631 |  | 0.0623 |  | 0.0579 | 0.0642 |  |  |  | 0.0717 |  | 0.0684 | 0.0622
C20F |  | 0.0623 | 0.0617 | 0.0484 | 0.0441 |  |  | 0.0425 | 0.0448 | 0.0536 | 0.0422 | 0.0576 | 0.0554 | 0.0196 | 0.053 | 0.0671 | 0.0445 | 0.0536 | 0.0462
W212K | 0.058 | 0.0565 | 0.026 | 0.0551 | 0.0593 | 0.0559 | 0.0584 | 0.0597 | 0.0437 | 0.0506 | 0.0493 | 0.0579 | 0.0554 | 0.0604 | 0.0668 |  |  | 0.0468 | 
